Experimental data published in a compilation of properties of binary mixtures (doi:10.1021/acs.jced.1c00419).
Some of these densities may be calculated back from excess volumes.

Experiment: xn = mol fraction of the nth substance listed
Settings: 101.3 kPa

NC1CCCCC1 + CCCCCCCCn1cc[n+](C)c1.F[B-](F)(F)F
x2 = 0
Settings | mass density [kg/m3]
293.15 K | 867.4
303.15 K | 858.3
323.15 K | 840.1

NC1CCCCC1 + CCCCCC[n+]1ccn(C)c1.F[B-](F)(F)F
x2 = 0
Settings | mass density [kg/m3]
293.15 K | 867.4
298.15 K | 862.9
303.15 K | 858.3
308.15 K | 853.8
313.15 K | 849.2
318.15 K | 844.7
323.15 K | 840.1

NC1CCCCC1 + CCCC[n+]1ccn(C)c1.F[B-](F)(F)F
mass density [kg/m3]
Settings | x2 = 0 | x2 = 0.0982 | x2 = 0.2032 | x2 = 0.301 | x2 = 0.4012 | x2 = 0.4828 | x2 = 0.6016 | x2 = 0.7124 | x2 = 0.8012 | x2 = 0.9024
293.15 K | – | 922.1 | 973.2 | 1014.7 | 1052 | 1079.2 | 1114.3 | 1142.9 | 1163.6 | –
298.15 K | 862.9 | 918.3 | 969.5 | 1011 | – | 1075.9 | – | 1140 | 1160.8 | 1182.2
303.15 K | 858.3 | 914.2 | 965.8 | 1007.2 | 1044.8 | 1072.3 | 1107.8 | – | 1157.6 | 1179
308.15 K | – | 910.2 | 962 | 1003.5 | 1041.2 | 1068.6 | 1104.1 | 1133.2 | 1153.8 | 1175.4
313.15 K | 849.2 | 906.2 | 958 | – | 1037.5 | 1064.9 | 1100.2 | 1129.3 | 1149.6 | –
318.15 K | 844.7 | 901.8 | 954 | – | 1034.3 | 1061.5 | 1096.8 | 1126 | 1147 | 1167.9
323.15 K | – | 897.6 | 950.1 | 992.6 | 1030.8 | 1058.4 | – | 1122.9 | 1143.9 | 1164.6

CCCCCCCCn1cc[n+](C)c1.F[B-](F)(F)F + NC1CCCCC1
mass density [kg/m3]
Settings | x1 = 0.1076 | x1 = 0.203 | x1 = 0.3072 | x1 = 0.4001 | x1 = 0.492 | x1 = 0.6078 | x1 = 0.7023 | x1 = 0.7996 | x1 = 0.8963
293.15 K | – | 961.7 | – | 1018.7 | – | 1059 | 1073.2 | 1086 | –
298.15 K | 919.4 | – | 991.1 | 1015 | 1034.9 | 1055.4 | – | 1082.6 | 1094
303.15 K | – | – | 987.3 | 1011.2 | 1031.2 | 1051.9 | 1066.2 | 1079.2 | 1090.6
308.15 K | 911 | 949.6 | – | 1007.8 | 1027.7 | 1048.4 | 1062.8 | 1076 | 1087.3
313.15 K | 906.9 | 945.7 | 979.7 | 1004 | – | 1045 | 1059.4 | 1072.6 | 1084
318.15 K | 902.5 | 941.5 | – | – | 1020.3 | – | – | 1069 | 1080.4
323.15 K | – | 937.3 | 971.6 | 996.3 | 1016.5 | 1037.7 | 1052.3 | 1065.5 | –

CCCCCC[n+]1ccn(C)c1.F[B-](F)(F)F + NC1CCCCC1
mass density [kg/m3]
Settings | x1 = 0.097 | x1 = 0.1808 | x1 = 0.2945 | x1 = 0.396 | x1 = 0.5009 | x1 = 0.6048 | x1 = 0.7029 | x1 = 0.8008 | x1 = 0.8991
293.15 K | 920.8 | 958.8 | 1001.4 | – | 1059.4 | 1082.4 | 1101.2 | – | 1133.7
298.15 K | – | – | 997.5 | 1028.9 | 1055.9 | 1078.8 | 1097.7 | 1114.6 | –
303.15 K | 912.6 | 950.8 | 993.5 | 1024.9 | 1052.1 | – | 1094.2 | 1111.1 | 1126.7
308.15 K | 908.3 | 946.6 | 989.5 | 1020.9 | 1048.2 | 1071.1 | 1090.2 | – | –
313.15 K | – | 942.7 | 985.8 | 1017.4 | 1044.7 | – | 1087.1 | 1104.1 | 1119.9
318.15 K | 899.9 | 938.5 | 981.9 | 1013.9 | 1041.4 | 1064.6 | 1083.8 | 1100.9 | –
323.15 K | 895.4 | 934.2 | – | – | – | 1060.5 | – | 1096.8 | 1112.5
